Experimental data: PubChem BioAssay AID652106 (National Center for Advancing Translational Sciences (NCATS), 2013)
Out of some 370,000 compounds screened, about 500 (0.14%) were called active. The shares of active, inactive and inconclusive entries below differ from those in the screen. Calls come from the whole dose curve; as a rule, active = well fitted activation curve with a large enough effect; inconclusive = small, poorly fitted or top-dose-only effect; inactive = no such curve, though single readings can be large or run the other way. Potencies of inconclusive entries are doubtful fits and often do not repeat.

Assay: qHTS of alpha-syn Inhibitors; note: nearly all actives have a fitted effect of over 65% in size
Conditions: Yeast expressing alpha-synuclein, BacTiter-Glo, 24 h; Potency: growth rescue unless noted; series mostly up to 46.1 µM
Summary of the method: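 Galactose-induced alpha-syn yeast (OD600=0.02, raffinose-pregrown) + pinned cpd, 24 hr, 30 deg C; growth by BacTiter-Glo luminescence. Growth restoration scores as activation.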
Potency is the fitted concentration of half-maximal effect; tags give direction and shape of the fitted curve.

Potency, inconclusive:
CC(CCc1ccccc1)NC(=O)COC(=O)c1ccc([N+](=O)[O-])cc1 (stereo unspecified) 35.5 µM [activator, single point]
O=C1C(c2ccccc2)NC(=S)N1C1CCCCC1 (stereo unspecified) 5.62 µM [activator, single point]
COc1cc2c(NC3CCN(C)CC3)nc(N3CCCN(C)CC3)nc2cc1OCC1CCNCC1 20 µM [activator, single point]
OCc1ccccc1-c1ccc2nncn2c1 15.8 µM [activator, single point]
O=S(=O)(c1ccc(Br)s1)N1CCNCC1 5.01 µM [activator, single point]
Cc1ccc(-c2ccnc3c(Br)c(C)nn23)cc1 15.8 µM [activator, single point]
CC1CN(S(=O)(=O)c2ccc(CN3C(=O)c4cccnc4C3=O)s2)c2ccccc2O1 (stereo unspecified) 35.5 µM [activator, single point]
Clc1ncn(CCOc2ccccc2)c1Cl 11.2 µM [activator, partial curve]
O=C(CSc1ncnc2sccc12)NCc1ccc2c(c1)OCO2 31.6 µM [activator, single point]
O=C(Nc1nnc(-c2ccc(Cl)cc2)o1)c1ccccc1Br 4.47 µM [activator, partial curve]
Cc1nc2scc(C)n2c(=O)c1S(=O)(=O)Nc1ccc(N2CCN(S(C)(=O)=O)CC2)cc1 31.6 µM [activator, single point]
CCOC(=O)N1CCN(C(=O)CSc2nnc(Cc3ccccc3)o2)CC1 31.6 µM [activator, single point]

Potency, inactive:
COc1cccc(Cn2c(Cn3c(-c4cnccn4)nc4ccccc43)nc3ccccc32)c1
Clc1ccc(Nc2c3c(nc4ncnn24)CCC3)cc1
COC(=O)C(Cc1ccc(O)cc1)NC(=O)c1ccccc1 (stereo unspecified)
COc1ccc([C@H]2CC(=O)C=C(c3cccc(Br)c3)C2)cc1OC
Cc1c(C(=O)NCCN2C(=O)S/C(=C\c3cccnc3)C2=O)cccc1[N+](=O)[O-]
C(=Nc1ccc(/C=C/c2ccnc3ccccc23)cc1)c1cccs1
CCCCCCSc1nnc(-c2cnn(-c3ccccc3)c2-n2cccc2)n1C
COc1cc(C2CC(=O)Oc3cc4c(cc32)OCO4)cc(OC)c1OC (stereo unspecified)
Cc1c(C(=O)N2CCN(Cc3ccc4c(c3)OCO4)CC2)sc2ncnc(N3CCN(c4ccccc4)CC3)c12
